Assay results from article PMC4336329 (PLoS ONE, 2015).
The campaign covered roughly 310,000 compounds. About 2,200 (0.71%) showed an effect of 50% or more. The effect is printed as a negative number. The list shows a part of the results.

target: human ether-à-go-go-related gene (hERG) potassium channel (human, UniProt Q12809); experiment: primary screen, population patch clamp on CHO cells stably expressing hERG
Sequence (Q12809 whole entry, looked up): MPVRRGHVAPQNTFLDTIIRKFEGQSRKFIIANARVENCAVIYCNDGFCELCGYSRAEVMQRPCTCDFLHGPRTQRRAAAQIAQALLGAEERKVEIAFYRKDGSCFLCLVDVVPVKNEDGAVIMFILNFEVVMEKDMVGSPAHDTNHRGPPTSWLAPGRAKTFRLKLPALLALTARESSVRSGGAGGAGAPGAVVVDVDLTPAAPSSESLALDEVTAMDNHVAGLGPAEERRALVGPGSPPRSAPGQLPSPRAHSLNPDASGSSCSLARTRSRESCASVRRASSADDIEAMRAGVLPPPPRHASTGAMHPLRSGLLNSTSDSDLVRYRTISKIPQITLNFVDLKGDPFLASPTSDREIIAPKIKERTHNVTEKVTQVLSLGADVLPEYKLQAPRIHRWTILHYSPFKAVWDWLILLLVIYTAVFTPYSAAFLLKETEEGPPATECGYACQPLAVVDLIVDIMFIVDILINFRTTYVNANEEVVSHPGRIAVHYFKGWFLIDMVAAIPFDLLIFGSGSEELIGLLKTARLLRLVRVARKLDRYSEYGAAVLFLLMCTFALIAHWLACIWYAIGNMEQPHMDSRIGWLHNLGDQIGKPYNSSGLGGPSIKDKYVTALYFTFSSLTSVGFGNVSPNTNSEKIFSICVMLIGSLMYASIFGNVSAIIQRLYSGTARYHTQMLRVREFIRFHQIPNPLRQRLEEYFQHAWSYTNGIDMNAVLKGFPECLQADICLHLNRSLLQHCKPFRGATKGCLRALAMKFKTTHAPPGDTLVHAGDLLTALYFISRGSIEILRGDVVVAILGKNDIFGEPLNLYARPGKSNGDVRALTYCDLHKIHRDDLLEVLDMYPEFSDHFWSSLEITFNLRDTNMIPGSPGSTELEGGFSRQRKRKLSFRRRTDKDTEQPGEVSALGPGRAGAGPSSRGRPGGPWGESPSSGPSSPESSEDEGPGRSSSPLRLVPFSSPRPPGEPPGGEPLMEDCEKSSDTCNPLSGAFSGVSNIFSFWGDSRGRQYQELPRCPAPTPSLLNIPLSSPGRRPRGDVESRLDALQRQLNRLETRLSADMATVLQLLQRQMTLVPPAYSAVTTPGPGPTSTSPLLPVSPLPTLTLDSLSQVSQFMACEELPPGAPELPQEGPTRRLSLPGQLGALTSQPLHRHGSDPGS

Compound | hERG current change (%, negative = inhibition) at 1uM [%]
COCCNC(=O)C(c1ccc(F)cc1)N(Cc1ccco1)C(=O)CCC(=O)Nc1ccccn1 (stereo not drawn) | 11.6
O=C1C(=O)c2ccccc2C(O)=C1c1ccccc1F | 10.6
O=C(Nc1nccs1)c1ccc(-c2ccc(Cl)cc2Cl)o1 | 20.3
CCN1CCN(C(=O)Nc2ccc(Cc3ccc(NC(=O)N4CCN(CC)CC4)cc3)cc2)CC1 | 11.5
Nc1ccc2c(c1)COc1ccccc1O2 | -6.6
CC(=O)c1cnc(Nc2nc(C)c3ccccc3n2)nc1C | 20.4
CC(NC(=O)Cc1ccccc1)C(=O)O (stereo not drawn) | 9.38
COc1cc(OC)nc(Oc2ccccc2C(=O)Oc2ccc(F)cc2Cl)n1 | 9.4
CCOc1cc(C(=O)NCCN2CCOCC2)cc(OCC)c1OCC | 9.12
CCC(C(=O)OCC(=O)c1ccc2c(c1)NC(=O)CO2)c1ccccc1 (stereo not drawn) | 10.9
CCOC(=O)C1=C(Nc2ccccc2)OCC1=O | 13.9
Cc1ccc(C(=O)Nc2cc(Cl)ccc2OC(=O)c2ccc(C)cc2)cc1 | 7.95
CCOC(=O)c1c(C)[nH]c(=S)c(C#N)c1-c1ccc(Cl)cc1 | 20.3
Cn1ccnc1SCCC#N | 5.67
O=C1NC(=O)/C(=C\c2ccc(OCc3cccc(C(=O)O)c3)c(Cl)c2)N1 | 16.8
Cc1cc(C)nc(N2Cc3ccccc3C2=N)n1 | 2.4
CCN(CC)S(=O)(=O)c1ccc(C)c(NC(=O)COc2ccc(Br)cc2Cl)c1 | 14.5
CC(C)Nc1nc2c(c(=O)n(C)c(=O)n2C)n1C | -1.81
Cc1cc(C)c(C(=O)C(C)OC(=O)Cn2cnc3c2c(=O)n(C)c(=O)n3C)cc1C (stereo not drawn) | 5.21
Cc1cc(NC(=O)c2cc(-c3cccs3)on2)nn1Cc1ccc(Cl)cc1 | -0.686
Cc1nc2sc(C(c3ccco3)N3CCC(Cc4ccccc4)CC3)c(O)n2n1 (stereo not drawn) | 2.11
Cc1noc(NS(=O)(=O)c2ccc(NC(=O)c3cnc4scc(C)n4c3=O)cc2)c1C | 9.16
C=C(C)c1cccc(C(C)(C)NC(=O)NCc2ccc(OC)c(OC)c2)c1 | 13.8

Compound | hERG current change (%, negative = inhibition) at 1uM [%]
O=C(O)C1C2CCC(C2)C1C(=O)NCCCn1ccnc1 (stereo not drawn) | 3.96
COc1cc(OC)cc(C(=O)N[C@H](C(=O)NCc2ccco2)C(C)C)c1 | 10.7
O=C(O)c1cc2nc(-c3ccc(F)cc3)cc(C(F)(F)F)n2n1 | 6.47
CC(C)c1nnc(NC(=O)C2CC(=O)N(CCc3ccc(F)cc3)C2)s1 (stereo not drawn) | 7.69
Cc1ccc(S(=O)(=O)N(C)CC(=O)Nc2ncccc2C)cc1 | 17.2
CCC(C)(C)n1nnnc1C(c1ccc2ncccc2c1)N1CCN2CCCC2C1 (stereo not drawn) | 8.16
Cc1ccc(C(=O)C(C)N2C(=O)NC(C)(c3ccccc3)C2=O)cc1 (stereo not drawn) | 4.77
COc1cc(CCC(=O)Nc2cccc(S(=O)(=O)N(C)C)c2)cc(OC)c1OC | 2.25
COc1ccc(CNC(=O)CN(C)S(=O)(=O)c2ccc(Cl)cc2)cc1 | 9.54
O=C(CN1C(=O)C(=O)N(C2CCCC2)C1=O)Nc1ccc(OC(F)F)cc1 | 11.8
CCOC(=O)N1CCN(CC(O)COc2cc(C)cc(C)c2)CC1.Cl (stereo not drawn) | 11.5
O=C(/C=C/c1ccc2ccccc2n1)c1cc(Br)ccc1O | 7.46
Fc1cccc(F)c1-n1c(CN2CCOCC2)csc1=S | 13.1
COc1ccc(OC(=O)c2c(C)nn(-c3ccccc3)c2C)cc1 | 11.9
O=C(O)CNc1nc(Cl)ccc1[N+](=O)[O-] | 12.3
COc1cccc(-n2c(-c3ccco3)nc3nc4ccccc4nc32)c1 | 8.23
CSCCC(NC(=O)OCc1ccccc1)C(=O)O (stereo not drawn) | 11.2
CC(=O)C1C(c2cn(-c3ccccc3)nc2-c2cccs2)NC(=O)NC1(O)C(F)(F)F (stereo not drawn) | 16
COc1ccc(Cl)cc1NC(=O)/C=C/C(=O)O | 15
CC1CCCN(CC(O)COc2ccc3c(c2)OCO3)C1.Cl (stereo not drawn) | -0.262
COC(=O)[C@H](Cc1ccccc1)N(C)S(=O)(=O)c1cccc(S(=O)(=O)N(C)[C@@H](Cc2ccccc2)C(=O)OC)c1 | 13.5
COc1ccc(NC(=O)CSc2nnc(-c3ccccn3)n2N)cc1 | 17.1
Cc1ccc(-c2nnn(CC(=O)N(c3ccc(F)cc3)C(C(=O)NC3CCCC3)c3ccncc3)n2)o1 (stereo not drawn) | 13.8

Compound | hERG current change (%, negative = inhibition) at 1uM [%]
Cc1ccc(NC(=S)NN(C)c2cc(C)nc(C)n2)cc1 | 16.9
O=C(NC1CC(=O)N(c2ccc(F)cc2)C1)C(=O)c1c[nH]c2ccccc12 (stereo not drawn) | -0.55
COc1cccc(CC(=O)Nc2cc(S(=O)(=O)N3CCOCC3)ccc2N2CCOCC2)c1 | 4.37
CCOCc1c(C(=O)OCC(=O)/C(C#N)=C(\C)N)oc2ccccc12 | 5.04
CCN(CC)CCCNC(=O)Cn1ccc2ccccc2c1=O | -1.84
COc1ccc(CNC(=O)C2CCCC2)cc1 | 13.3
COc1ccc(Cc2nc3ccc(C(=O)NCc4cc(C)no4)cc3o2)cc1OC | -4.18
Nc1cc(=O)[nH]c(SCCSc2ccc(F)cc2)n1 | 12.9
Cc1ccc(C)c(N2CCN(C(=O)CCS(=O)(=O)c3ccc4c(c3)NC(=O)C(C)S4)CC2)c1 (stereo not drawn) | -0.397
CCOc1cc(NC(=S)NCc2ccco2)c(OCC)cc1NC(C)=O | 2.8
CCN(CCCn1c(=S)[nH]c2ccc(N3CCOCC3)cc2c1=O)c1ccccc1 | 5.86
CCCCCN(C(=O)CCC(=O)OCc1cccc(Br)c1)c1c(N)n(CCCC)c(=O)[nH]c1=O | 0.761
O=C(COC(=O)c1cc[n+]([O-])cc1)NCCc1ccc(Cl)cc1Cl | 7.99
COc1cccc(C2CC(C(F)(F)F)n3ncc(C(=O)NCc4ccco4)c3N2)c1 (stereo not drawn) | 3.2
Cc1cnc(NC(=O)c2sc(Nc3ccccc3)nc2N)o1 | 14.9
Cc1n[nH]c(=O)c2c1nnn2Cc1ccc(F)cc1 | 7.15
O=C1NCCCC1C(=O)N1CCN(C(=O)c2ccco2)CC1 (stereo not drawn) | -3.95
C[C@H](O)CC(=O)O | 16.9
CC(NC(=O)Nc1ccc(Cl)c(Cl)c1)C(c1ccccc1)N1CCOCC1 (stereo not drawn) | 0.716
O=C(O)C(=O)O.c1ccc(COc2ccc(OCCCCN3CCCC3)cc2)cc1 | -28.2
COc1ccc(N2CCN(C(=O)CNC(=O)c3cccc(Br)c3)CC2)cc1 | 10.7
O=C(c1ccccc1CCc1ccccc1)N1CCN(c2ccccn2)CC1 | 1.7
COc1cccc(OC)c1-c1nnc(-c2cn(C)c3ccccc23)o1 | 8.08

Compound | hERG current change (%, negative = inhibition) at 1uM [%]
CCOCCC(=O)Nc1nnc(CCc2ccccc2)s1 | 3.01
Cc1cccc(N2CCN(C(=O)c3cc(S(=O)(=O)N4CCOCC4)cn3C)CC2C)c1 (stereo not drawn) | 16.4
N#C/C(=C(/O)c1ccc([N+](=O)[O-])cc1)c1nnc2n1CCCCC2 | 7.72
CCOC(=O)c1cccc(NC(=O)CCNS(=O)(=O)c2ccc3c(c2)CCN3C(=O)CC)c1 | 7.56
Oc1ccc(-c2csc(Nc3ccccn3)n2)c(O)c1 | 13.3
Fc1ccc(N/N=C2/CCSc3sccc32)c(F)c1 | 2.1
CCOP(=O)(OCC)C(NC(=O)Nc1c(C)cc(C)cc1C)c1ccccc1 (stereo not drawn) | 10.6
Cn1c(SCC(=O)N2CCCC2)nnc1-c1ccc(S(=O)(=O)N2CCCC2)cc1 | -0.72
O=C(C(NS(=O)(=O)c1cccs1)c1ccccc1)N1CCN(c2ccccc2)CC1 (stereo not drawn) | -13.3
Cc1ccc(C(=O)O)cc1S(=O)(=O)N1CCCC1 | 2.89
COc1ccc(Cn2cnc3c(N)c(C)c(C)cc32)cc1 | 10.9
O=C(NNC(=S)NC1CCCCC1)c1sc2ccccc2c1Cl | 6.85
Cc1ccccc1N=C1NC(=O)CS1 | 3.92
COc1ccc(C)cc1NC(=O)CN1CCN(S(=O)(=O)c2ccc(C(C)C)cc2)CC1 | 4.65
CCOc1ccc(OCC)c(NS(=O)(=O)c2ccc3c(c2)n(C)c(=O)c(=O)n3C)c1 | -4.68
Cl.O=C(O)c1ccc(CNCc2cccc(OCc3ccc(F)cc3)c2)cc1 | 19.4
Cc1ccc(C(=O)OCC(=O)N(C)c2ccccc2)cc1C | 9.54
CN(CC(=O)NC(=O)NC(C)(C)C)CC(=O)Nc1ccccc1Cl | 14.6
COc1ccc(-c2noc(CNC(=O)c3ccoc3C)n2)cc1OC | 17.8
CN(C)N=Nc1ccc(S(N)(=O)=O)cc1 | 13.4
O=C(O)/C=C/c1ccc(S(=O)(=O)Nc2cccnc2)cc1 | 18.1
